Data from PMC5011342, “A high throughput drug screening assay to identify compounds that promote oligodendrocyte differentiation using acutely dissociated and purified oligodendrocyte precursor cells” (BMC Research Notes, 2016).
Where two headings read alike, the source gives them in different places.

System: expanded OPCs
Test: cells
Conditions: Rattus norvegicus, 72 h
Method: Having established a consistent assay for measuring OL differentiation in vitro, the next step was to utilize this assay to assess the ability of a wide array of compounds to promote OL differentiation. Prior to library screening, we first established the maximum non-toxic dose of each compound in the library. […] Therefore, we added each compound in the NIH clinical collection (NCC) library to OPCs at 10, 1, and 0.1 µM concentrations. Three days later, we assessed viability of the treated cells by measuring AlamarBlue fluorescence, a measure of cell viability (see “Methods” section). […] Appropriately, we established three sets of screening concentrations for library compounds: non-toxic compounds were tested at 10 and 2 µM, slightly toxic compounds (only toxic at 10 µM) were tested at 2 and 0.4 µM, and very toxic compounds were tested at 0.4 and 0.08 µM.
OPCs were expanded in vitro by seeding into PDL-coated tissue culture flasks at 1000–2000 cells/cm^2 in differentiation media supplemented with 10 ng/ml PDGF-AA. Proliferating OPCs were fed every 2–3 days and supplemented with 2–3× concentration of PDGF as needed to prevent OPC differentiation. After 6–7 days of proliferation, OPCs were harvested by trypsinization, plated into PDL-coated 96-well Falcon plates and centrifuged at 200×g to facilitate cell attachment, survival, and even distribution of cells. Expanded OPCs were seeded in differentiation media at 10,000 cells/well and incubated for 2 h at 37 °C, 10 % CO2 prior to addition of compounds. The NCC library was diluted and added to cells at 10, 1, and 0.1 µM; each concentration was tested in quadruplicate. As a positive control for the induction of toxicity, 5 ng/ml tunicamycin was added to 8 wells in each plate. Three days later, a 1:10 dilution of alamarBlue® (AB) was added to each well and cells were incubated 4 h at 37 °C, 10 % CO2. AB fluorescence was measured using a PerkinElmer Victor II fluorescence microplate reader (PerkinElmer, Waltham, MA) with 560 nm excitation/590 nm emission filters. For library screening, the highest concentration of each compound was adjusted to a minimally toxic concentration based on this toxicity data. Compounds were additionally tested at a second concentration that was 1/5th of the top concentration. The final concentration of DMSO in each well was 0.1 %.

Compound | viability at 0.1 µM (read-out: 0.1 µM (% DMSO), alamarBlue viability, NCC library compound at 0.1 µM, sheet "All Tox data") | viability at 1 µM (read-out: 1 µM (% DMSO), alamarBlue viability, NCC library compound at 1 µM, sheet "All Tox data") | viability at 10 µM (read-out: 10 µM (% DMSO), alamarBlue viability, NCC library compound at 10 µM, sheet "All Tox data") | viability at 0.1 µM (read-out: 0.1 µM (% DMSO)) | viability at 1 µM (read-out: 1 µM (% DMSO)) | viability at 10 µM (read-out: 10 µM (% DMSO))
COc1cc2c(cc1OC)C(=O)C(CC1CCN(Cc3ccccc3)CC1)C2 (stereo not drawn) [Donepezil, reference compound] | 114% | 145% | 135% | – | – | –
COC(=O)C1=C(C)NC(C)=C(C(=O)OC)C1c1ccccc1[N+](=O)[O-] [Nifedipine] | – | – | – | 85.2% | 80% | 12.4%
CCn1cc(C(=O)O)c(=O)c2cc(F)c(N3CCN(C)CC3)cc21 [Pefloxacin] | – | – | – | 87.9% | 87.6% | 89.7%
Nc1nc2ccc(OC(F)(F)F)cc2s1 [Riluzole] | – | – | – | 76.5% | 87.3% | 75.4%
